# According to the supplement of paper PMC3334620:
# The full ranking holds about 33,000 sequences; the median of “E-score (-0.5 to 0.5)” is about -0.053, and the highest 2% start at about 0.37. This is one part of the list.
# Target: Hap1 (UniProt P0CE41)
# Test: PBM E-score (8-mer binding enrichment) (E-score (-0.5 to 0.5)); higher = stronger / more preferred TF binding; most listed sequences are background and not binding sites
# Details: protein concentration: 200 nM; construct: GST-DNA-binding domain
# Procedure, shortened: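 For each ungapped eight-base word taken together with its reverse complement, the Universal PBM Analysis Suite assigned an E-score. Binding data came from GST-tagged yeast transcription factors, applied at about 100-200 nM, on universal all-10-mer Agilent arrays made double-stranded by primer extension. Fluorescent anti-GST marked bound protein, and scans were normalised with masliner.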
# Sequence of UniProt P0CE41 (P0CE41 whole entry): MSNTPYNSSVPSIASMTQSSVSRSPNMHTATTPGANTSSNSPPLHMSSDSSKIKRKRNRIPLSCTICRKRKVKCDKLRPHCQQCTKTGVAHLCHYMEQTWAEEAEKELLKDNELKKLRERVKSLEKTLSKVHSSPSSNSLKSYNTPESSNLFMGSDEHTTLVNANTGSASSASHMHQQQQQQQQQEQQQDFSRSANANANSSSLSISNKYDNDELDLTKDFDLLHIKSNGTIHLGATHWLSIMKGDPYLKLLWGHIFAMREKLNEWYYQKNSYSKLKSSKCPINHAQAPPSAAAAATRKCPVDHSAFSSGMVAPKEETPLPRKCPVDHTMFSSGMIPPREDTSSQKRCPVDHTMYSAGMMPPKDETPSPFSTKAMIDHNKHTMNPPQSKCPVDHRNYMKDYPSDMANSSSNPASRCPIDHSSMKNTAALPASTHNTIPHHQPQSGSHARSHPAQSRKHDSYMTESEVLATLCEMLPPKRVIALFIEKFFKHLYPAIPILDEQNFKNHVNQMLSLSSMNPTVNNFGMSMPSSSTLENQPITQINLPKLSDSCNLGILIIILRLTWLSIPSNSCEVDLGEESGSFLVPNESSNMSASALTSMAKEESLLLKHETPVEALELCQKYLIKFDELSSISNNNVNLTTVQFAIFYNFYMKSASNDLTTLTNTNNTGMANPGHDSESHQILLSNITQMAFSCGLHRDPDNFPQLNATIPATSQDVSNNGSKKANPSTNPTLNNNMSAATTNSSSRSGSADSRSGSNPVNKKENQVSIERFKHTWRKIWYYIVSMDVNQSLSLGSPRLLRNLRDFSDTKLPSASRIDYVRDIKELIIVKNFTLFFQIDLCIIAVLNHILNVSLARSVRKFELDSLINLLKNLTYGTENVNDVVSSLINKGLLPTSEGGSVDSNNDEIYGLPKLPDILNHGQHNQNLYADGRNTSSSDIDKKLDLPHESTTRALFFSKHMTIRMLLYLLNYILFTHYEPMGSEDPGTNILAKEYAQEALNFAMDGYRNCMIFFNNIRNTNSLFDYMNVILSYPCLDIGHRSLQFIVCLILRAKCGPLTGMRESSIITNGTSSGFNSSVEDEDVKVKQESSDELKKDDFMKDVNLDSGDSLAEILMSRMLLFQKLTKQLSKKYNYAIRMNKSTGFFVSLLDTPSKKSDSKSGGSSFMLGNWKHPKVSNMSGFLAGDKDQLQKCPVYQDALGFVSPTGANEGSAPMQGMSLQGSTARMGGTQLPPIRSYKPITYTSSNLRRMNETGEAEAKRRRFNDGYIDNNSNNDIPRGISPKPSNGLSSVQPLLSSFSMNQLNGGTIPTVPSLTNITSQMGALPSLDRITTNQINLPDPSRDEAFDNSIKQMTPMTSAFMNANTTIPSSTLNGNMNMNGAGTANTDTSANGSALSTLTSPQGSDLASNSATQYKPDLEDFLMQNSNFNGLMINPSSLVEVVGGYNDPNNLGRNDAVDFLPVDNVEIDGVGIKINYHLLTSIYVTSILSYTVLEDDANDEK
row,Sequence,PBM E-score
1,ACGATTCC,0.0745
2,CAATGGGA,0.0526
3,ATGGTATC,-0.0144
4,GTTATTGA,-0.0768
5,GAAGAGCC,0.0682
6,AGTCCGTA,0.269
7,CCCCTATC,-0.0338
8,ACCGCACG,-0.0174
9,ACTCGCAC,0.0265
10,ATATAGTG,0.0257
11,CCCGTCGG,0.323
12,CAATTGCG,-0.09
13,GTTCACTA,0.00099
14,AATGTTCC,0.12
15,AGGTCATC,0.0639
16,GCCCCAAC,0.0345
17,ACAGCCTA,0.0258
18,ATCAACTG,0.0174
19,AAGAGGTC,-0.0848
20,GCCGTTAA,0.346
21,ACATAGCG,0.0823
22,CTTTGCAC,-0.237
23,CAGGAGAC,-0.0507
24,GCATCCTA,-0.103
25,TCAAGTAA,-0.286

row,Sequence,PBM E-score
1,CTTAAATC,0.114
2,GCGTTCAA,-0.207
3,ATAAGCCG,0.3
4,CTCGTTCA,-0.206
5,CCAGTTAC,-0.143
6,ATCCCAGG,-0.0222
7,CCTAAAAA,0.00566
8,TGGCAAAA,-0.153
9,ATTTGTGG,-0.0447
10,ACAATTAT,-0.0401
11,ACCAGACT,-0.396
12,ACGAAGTG,-0.135
13,AGCCTGCC,-0.0268
14,GGCGCCGA,0.313
15,AACGAACA,0.116
16,CAACGTCA,-0.165
17,TCCAAAAA,-0.146
18,GAGACCGA,0.302
19,GTAATGGA,-0.0964
20,GACCATGC,-0.087
21,AAGACTTC,-0.137
22,ACTCCTGG,-0.171
23,CCGATACG,0.42
24,CCGTCAGG,-0.042
25,CGTTGCCC,0.0882

row,Sequence,PBM E-score
1,GAATTGGA,-0.155
2,CCCCTAAG,-0.196
3,CACGTAGC,-0.152
4,CATGAACC,0.0749
5,TGACTCCA,-0.243
6,TTAATAAA,0.0578
7,CACGTTCG,0.0803
8,CTAGGAGA,-0.216
9,AACCGCGT,0.0872
10,ATACAAAC,0.0333
11,GTACTTAA,-0.072
12,CACAGGTC,-0.11
13,ATAGGCCG,0.203
14,CGCGTGGA,-0.079
15,CGTGGCAG,-0.0988
16,GTTAGGGA,-0.253
17,GTCAACCA,-0.311
18,ATGACGAC,-0.0583
19,ACTAAACA,-0.15
20,CGTCATTA,-0.0252
21,AACCAACA,-0.103
22,ATCATCCC,-0.00016
23,CGTTTATC,0.153
24,ATAGTGGG,0.12
25,ACCACGCG,-0.00309

row,Sequence,PBM E-score
1,AGTGGTGC,-0.137
2,AGGTGAGC,-0.13
3,ACCCCCTG,-0.177
4,GCCTGACC,0.145
5,GCCTAGGC,-0.182
6,CCTGGCTC,-0.16
7,ACGTCTAG,-0.181
8,AGTGACCG,0.117
9,ACTCACGG,0.169
10,ACCGTGGA,0.141
11,CAGTAAGA,-0.182
12,CCGACGAA,0.291
13,AGTCTCAG,-0.266
14,ATCTACTA,-0.0474
15,AAGCCATG,-0.0552
16,ATGTTAAC,-0.0143
17,ACTGTTTA,-0.249
18,AACATAAG,-0.00094
19,CACTCAGG,-0.2
20,AACCCACC,0.0785
21,AGCAGCTA,-0.212
22,GACACCGA,0.254
23,CCAATCGA,-0.034
24,GATACTTA,-0.0679
25,GATCCCCA,0.149

row,Sequence,PBM E-score
1,CGAATCTA,-0.0204
2,CCCTGTTC,-0.169
3,TGGCAGAA,-0.0128
4,CAACTGGG,-0.122
5,ATCTCGCG,0.0899
6,GAGCACAC,-0.175
7,GTTGCATA,-0.185
8,CTTCCAAG,-0.197
9,GCTGCCCC,-0.0982
10,ACCCATAA,0.194
11,AGGCATGG,-0.0848
12,CAGTTAAC,0.129
13,GCCCCCTA,-0.185
14,AGATCGAG,-0.0407
15,CGCCCGCA,0.189
16,CACGCTAA,-0.0232
17,AGTGCCTG,-0.0491
18,GGAAGTCA,0.0587
19,AGCATGCC,-0.131
20,GGGGTCAA,0.0491
21,AAACGAGA,-0.0201
22,AATGCTTA,-0.138
23,GTCGATCA,-0.19
24,GGTTTCAA,0.185
25,GCCCGGTA,0.38

row,Sequence,PBM E-score
1,ACTTTCTC,0.0761
2,CGTAAATA,0.0779
3,ATTTTCCG,0.413
4,ATTCGTTA,-0.0198
5,AATCTTGA,-0.202
6,AATGCATG,-0.0416
7,CGGACTGC,0.182
8,ATTGAGCG,-0.00769
9,AGCGCCCG,0.288
10,ACACCGTC,0.169
11,CTAGTAGA,-0.0309
12,CACGGCCC,0.00734
13,CTTGGGAA,-0.138
14,AATAGAAC,0.00613
15,CAGTTGAC,-0.115
16,CCGCGCCA,0.128
17,GCGTTGAA,0.0409
18,GATGTCCC,0.0832
19,ATTTTCGA,-0.0541
20,GCCTTAGC,-0.103
21,GTGGTCTA,-0.121
22,AACTAGAA,-0.192
23,GTCAGGAC,-0.211
24,CCTAACCC,0.0154
25,ACGATGCT,-0.185

row,Sequence,PBM E-score
1,CTTCAACC,-0.134
2,GCAGGCCC,-0.138
3,ATATGGAC,-0.0394
4,CCCATTCC,-0.0938
5,AAACTCCC,0.189
6,AAGATTAG,0.0226
7,TGAACTCA,-0.2
8,GCCCTGAA,0.0376
9,AATCGCTA,-0.125
10,CCTAAAGC,-0.0947
11,ACCCAACG,-0.0503
12,ATCCATAC,-0.0502
13,GGGAGTAC,-0.0432
14,ATGAAATA,-0.0556
15,GGGTAGAA,-0.0506
16,ATACCCTC,0.0941
17,CCGCATTA,0.295
18,ATCGAGTA,-0.191
19,AGTTATGA,-0.135
20,TCCACTCA,-0.132
21,CTTTGTGC,-0.158
22,CGGTCGAC,0.316
23,GTGTGCGA,-0.0613
24,GTTGAGGA,-0.122
25,AAAATAAA,-0.0729

row,Sequence,PBM E-score
1,ATTCAAAA,-0.141
2,TGATGCCA,-0.26
3,CGGTTGTA,0.245
4,CGGCGAAC,0.295
5,AGAGTGAT,-0.162
6,CTTTAACA,0.0756
7,GTTAATTA,0.133
8,ATGTTCTC,-0.0906
9,CTACTTTC,0.00229
10,AGCCGGGA,0.231
11,ACGGTTCT,-0.0996
12,ATGTCAGC,0.0299
13,CGCGGCGA,0.299
14,AACGGACG,0.305
15,TCTGAACA,-0.182
16,ATGGTCTA,-0.234
17,CCAATAGG,-0.276
18,CTATTAGA,-0.147
19,GAAACGTC,-0.0511
20,ACTAGTCA,-0.241
21,CTCGCATA,-0.145
22,AAGGGTTG,-0.189
23,AAATATCA,-0.0874
24,GTGCCAAA,-0.14
25,CCCGATAC,0.432

row,Sequence,PBM E-score
1,CCGGCCCA,0.231
2,CTACGAAC,-0.165
3,AAGTTACC,0.134
4,ATACAGAT,-0.249
5,ATCCCCTC,-0.16
6,CGTACGAA,0.0545
7,CTTGTTAA,0.0389
8,AACTGCCT,-0.0937
9,AAACTGTC,-0.267
10,CGGGGTGC,0.21
11,CCTGCTTA,-0.175
12,GAGATGTA,0.0156
13,CTGCTGTA,-0.0401
14,GAAGAAGA,-0.16
15,AAACTGCT,-0.214
16,AAGCTCCG,0.411
17,AGCGAAGA,-0.0555
18,AAACACAG,-0.0167
19,CCCGTTAC,0.253
